According to the supplement of paper PMC12217912:
This is one part of the list. Sequences were assembled here from the parent chain. Values near 0.05 are background.

B1: TEV protease; numbered along this chain (parent)
chain: MGESLFKGPRDYNPISSSICHLTNESDGHTTSLYGIGFGPFIITNKHLFRRNNGTLVVQSLHGVFKVKDTTTLQQHLVDGRDMIIIRMPKDFPPFPQKLKFREPQREERICLVTTNFQTKSMSSMVSDTSCTFPSGDGIFWKHWIQTKDGQCGSPLVSTRDGFIVGIHSASNFTNTNNYFTSVPKNFMELLTNQEAQQWVSGWRLNADSVLWGGHKVFMVKPEEPFQPVKEATQL

Variants of: B1
Assay: raw area under fraction-flipped curve 0-4 h after induction (AUC4h, not background-subtracted), DNA-recorder readout of cleavage of the substrate (dimensionless); higher = more cleavage of the substrate by the protease variant
Conditions: temperature: 34 °C; time window: 0-4 h after rhamnose induction
Method: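 In vivo DNA recorder in E. coli TOP10(DE3) ΔrhaA at 34 °C. Each TEVp single-site mutant (parent TEVp 0) is paired with a single-site variant of the 7-mer TEVs (canonical ENLYFQ|S). The substrate sits between flexible linkers in a Bxb1-sfGFP-TEVs-SsrA fusion, so cleavage stabilises Bxb1 and speeds flipping of a recombination array, read by NGS. The value is the raw area under the fraction-flipped curve over 0-4 h after rhamnose induction (AUC4h), with ≥20 reads per time point. It is not background-subtracted; inactive controls average about 0.047.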
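Also: Bxb1 expression induced with 0.2% (w/v) L-rhamnose at OD600 near 0.5, cultures sampled hourly, flipped fraction per protease–substrate barcode pair counted by paired-end Illumina sequencing.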

Row | Variant | area with substrate EALYFQS | area with substrate ECLYFQS | area with substrate EDLYFQS | area with substrate EELYFQS | area with substrate EFLYFQS | area with substrate EHLYFQS | area with substrate EKLYFQS | area with substrate ELLYFQS | area with substrate EMLYFQS | area with substrate EPLYFQS | area with substrate EQLYFQS | area with substrate ESLYFQS | area with substrate EGLYFQS | area with substrate EILYFQS | area with substrate ERLYFQS | area with substrate ETLYFQS | area with substrate EVLYFQS | area with substrate EWLYFQS | area with substrate EYLYFQS
1 | MGESLFKGPRDYNPISSSICHLTNESDGHTTSLYGIGFGPFIITNKHLFRRNNGTLVVQSLHGVFKVKDTTTLQQHLVDGRDMIIIRMPKDFPPFPQKLKFREPQREERICLVTVNFQTKSMSSMVSDTSCTFPSGDGIFWKHWIQTKDGQCGSPLVSTRDGFIVGIHSASNFTNTNNYFTSVPKNFMELLTNQEAQQWVSGWRLNADSVLWGGHKVFMVKPEEPFQPVKEATQL [T115V] | 0.109 | 0.0974 | 0.151 | 0.139 | 0.105 | 0.0824 | 0.116 | 0.097 | 0.103 | 0.125 | 0.131 | 0.0949 |  |  |  |  |  |  | 
2 | MGESLFKGPRDYNPISSSICHLTNESDGHTTSLYGIGFGPFIITNKHLFRRNNGTLVVQSLHGVFKVKDTTTLQQHLVDGRDMIIIRMPKDFPPFPQKLKFREPQREERICLVTTNFQTKSMSSMVSDTSCTFPSGDGIFWKHWIQTKDGQCGSPLVSTRDGFIVGIHSASNFTNTNNYFTSVPKNFMEELTNQEAQQWVSGWRLNADSVLWGGHKVFMVKPEEPFQPVKEATQL [L190E] | 0.0803 | 0.0806 | 0.123 |  | 0.0849 | 0.112 | 0.0816 |  | 0.112 |  | 0.107 | 0.082 | 0.0545 | 0.0789 | 0.107 | 0.085 | 0.0898 | 0.108 | 0.0881
3 | MGESLFKGPRDYNPISSSICHLTNESDGHTTSLYGIGFGPFIITNKHLFRRNNGTLVVQSLHGVFKVKDTTTLQQHLKDGRDMIIIRMPKDFPPFPQKLKFREPQREERICLVTTNFQTKSMSSMVSDTSCTFPSGDGIFWKHWIQTKDGQCGSPLVSTRDGFIVGIHSASNFTNTNNYFTSVPKNFMELLTNQEAQQWVSGWRLNADSVLWGGHKVFMVKPEEPFQPVKEATQL [V78K] | 0.0503 | 0.0514 | 0.0743 |  |  | 0.0745 | 0.0621 |  | 0.0495 | 0.058 | 0.0599 | 0.0601 |  | 0.0554 | 0.0422 | 0.0628 | 0.0558 | 0.0735 | 
4 | MGESLFKGPRDYNPISSSICHLTNESDGHTTSLYGIGFGPFIITNKHLFRRNNGTLVVQSLHGVFKVKDTTTLQQHLVDGRDMIIIRMPKDFPPFPQKLKFREPQREERICLVTTNFQTKSMSSMVSDTSCTFPSGDGIFWKHWIQTKDGQCGSPLVSTRDGFIVGIHSASNQTNTNNYFTSVPKNFMELLTNQEAQQWVSGWRLNADSVLWGGHKVFMVKPEEPFQPVKEATQL [F173Q] | 0.0994 | 0.0616 |  |  |  |  |  |  |  |  | 0.093 | 0.103 |  |  | 0.0667 |  | 0.0802 |  | 0.0898
5 | MGESLFKGPRDYNPISSSICHLTNESDGHTTSLYGIGFGPFIITNKHLFRRNNGTLVVQSLHGVFKVKDTTTLQQHLVDGRDMIIIRMPKDFPPFPQKLKFREPQREERICLVTTNFQTKSMSSMVSDTSCTFPSGDGIFWKHWIQTKDGQCGSPLVSTRDGFIVGIHSASNFTNTNNYFTSVPKNFMELLTNQEAQQWVSGWRLNADSVLWGGNKVFMVKPEEPFQPVKEATQL [H215N] | 0.0498 | 0.0536 | 0.0793 | 0.0722 |  | 0.0643 | 0.0573 | 0.0552 |  |  | 0.0506 |  | 0.0677 | 0.0638 | 0.076 |  |  | 0.0644 | 0.0625
6 | MGESLFKGPRDYNPISSSICHLTNESDGHTTSLYGIGFGPFIITNKHLFRRNNGTLVVQSLHVVFKVKDTTTLQQHLVDGRDMIIIRMPKDFPPFPQKLKFREPQREERICLVTTNFQTKSMSSMVSDTSCTFPSGDGIFWKHWIQTKDGQCGSPLVSTRDGFIVGIHSASNFTNTNNYFTSVPKNFMELLTNQEAQQWVSGWRLNADSVLWGGHKVFMVKPEEPFQPVKEATQL [G63V] | 0.104 | 0.0841 | 0.112 | 0.109 |  | 0.0924 | 0.0695 | 0.123 | 0.0861 | 0.1 | 0.102 | 0.0884 |  | 0.0782 |  | 0.0935 | 0.0698 | 0.0789 | 
7 | MGESLFKGPRDYNPISSSICHLTNESDGHTTSLYGIGFGPFIITNKHLFRRNNGTLVVQSLHGVFKVKDTTTLQQHLVDGRDMIIIRMPKDFPPFPQKLKFREPQREERICLVTTNFQTKSMSSMVSDTSCTFPSGDGIFWKHWIQTKDGQCGSPLVSTRDGFIVGIHSASNFTNTNFYFTSVPKNFMELLTNQEAQQWVSGWRLNADSVLWGGHKVFMVKPEEPFQPVKEATQL [N178F] | 0.193 | 0.189 |  |  |  |  | 0.169 |  |  | 0.227 |  | 0.184 | 0.208 |  |  |  | 0.212 |  | 
8 | MGESLFKGPRDYNPISSSICHLTNESDGHTTSLYGIGFGPFIITNKHLFRRNNGTLVVQSLHGVFKVKDTTTLQQHLVDGRDMIIIRMPKDFPPFPQKLKFREPQREERICLVTTNFQTKSMSSMVSDTSCTFPSGDGIFWKHWIQTKDGQCGSPLVSTRDGFIVGIHSASNFTNTNNYFTSVPKNFMELLTNQEAQQWVSGWRLNADSVLWGGHKVFHVKPEEPFQPVKEATQL [M219H] | 0.0976 | 0.102 |  | 0.125 |  | 0.0961 | 0.092 | 0.0884 | 0.0799 | 0.111 | 0.0958 | 0.094 |  | 0.105 | 0.0905 |  | 0.0897 | 0.0951 | 
9 | MGESLFKGPRDYNPISSSICHLTNESDGHATSLYGIGFGPFIITNKHLFRRNNGTLVVQSLHGVFKVKDTTTLQQHLVDGRDMIIIRMPKDFPPFPQKLKFREPQREERICLVTTNFQTKSMSSMVSDTSCTFPSGDGIFWKHWIQTKDGQCGSPLVSTRDGFIVGIHSASNFTNTNNYFTSVPKNFMELLTNQEAQQWVSGWRLNADSVLWGGHKVFMVKPEEPFQPVKEATQL [T30A] | 0.181 | 0.143 | 0.135 |  | 0.101 | 0.111 | 0.109 |  | 0.111 |  | 0.118 | 0.103 |  |  | 0.112 | 0.114 | 0.0861 | 0.117 | 0.11
10 | MGESLFKGPRDYNPISSSICHLTNESDGHTTSLYGIGFGPFIITNKHLFRRNNGTLVVQSLHGVFKVKDTTTLQQHLVDGRDMIIIRMPKDFPPFPQKLKFREPQREERICLVTTNFQTKSMSSMVSDTSCTFPSGDGIFWKHWIQTKDGQCGSPLVSTRDGFIVGIHSASNFTNTNNYFTSVPKNFMELLTNQEAQQWVSGWRLNADSFLWGGHKVFMVKPEEPFQPVKEATQL [V210F] | 0.0971 |  | 0.0827 | 0.0976 |  | 0.0873 | 0.0999 |  |  | 0.118 |  | 0.0837 | 0.0811 | 0.0831 |  |  | 0.0899 |  | 
